# From the supplement of paper PMC8728848
# The list shows a part of the results.
# B1: MpL2 (Macrolepiota procera) (protein)
# chain: MSTQVSSGQTYKITNVKAGTVIDLSGEDNKSIIGYPYHSGKNQQWTFNWTGKAWTLRSASSGSYLGIEGTPADGTRLVAVNDPFEWHIWRDEANENAFRIFVPFTNYNLRLSGYGDTTPGTPVQLWWTWEGLHQTWTIDRP
# How the values were obtained:
# Experiment in all cases: glycan array binding signal (z-score within array); higher = stronger binding
# Settings in all cases: glycan notation: IUPAC condensed, linker removed; mutation: D109R
# [1] = target: GlcNAc(b1-4)GlcNAc(b1-4)GlcNAc(b1-4)GlcNAc(b1-4)GlcNAc
# Method in brief: (§1)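 Glycan array binding is given as a within-array Z-score, which can be read as non-binding when negative. The arrays, 3228 of them, came from the Consortium for Functional Glycomics database and were retained only where the protein sequence was available. Z-scores were averaged across arrays of the same protein sequence at different concentrations or buffers and across linkers.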
# [2] = target: GlcNAc(b1-4)GlcNAc(b1-4)GlcNAc(b1-4)GlcNAc(b1-4)GlcNAc(b1-4)GlcNAc
# Method in brief: as §1
# [3] = target: GlcNAc(b1-4)[GlcNAc(b1-6)]GalNAc
# Method in brief: as §1
# [4] = target: GlcNAc(b1-6)Gal(b1-4)GlcNAc
# Method in brief: as §1
# [5] = target: GlcNAc(b1-6)GalNAc
# Method in brief: as §1
# [6] = target: GlcNAc6S(b1-3)Gal(b1-4)GlcNAc
# Method in brief: as §1
# [7] = target: Kdn(a2-3)Gal(b1-3)GalNAc
# Method in brief: as §1
# [8] = target: Kdn(a2-3)Gal(b1-3)GlcNAc
# Method in brief: as §1
# [9] = target: Kdn(a2-3)Gal(b1-4)Glc
# Method in brief: as §1
# [10] = target: Kdn(a2-3)Gal(b1-4)GlcNAc
# Method in brief: as §1
# [11] = target: Kdn(a2-3)Gal(b1-4)[Fuc(a1-3)]GlcNAc
# Method in brief: as §1
# [12] = target: Kdn(a2-6)Gal(b1-4)GlcNAc
# Method in brief: as §1
# [13] = target: Man(a1-2)Man(a1-2)Man(a1-3)Man
# Method in brief: as §1
# [14] = target: Man(a1-2)Man(a1-2)Man(a1-6)[Man(a1-3)]Man
# Method in brief: as §1
# [15] = target: Man(a1-2)Man(a1-3)Man
# Method in brief: as §1
# [16] = target: Man(a1-2)Man(a1-3)[Man(a1-2)Man(a1-6)]Man
# Method in brief: as §1
# [17] = target: Man(a1-2)Man(a1-3)[Man(a1-2)Man(a1-6)]Man(a1-6)[Man(a1-2)Man(a1-2)Man(a1-3)]Man
# Method in brief: as §1
# [18] = target: Man(a1-2)Man(a1-3)[Man(a1-2)Man(a1-6)]Man(a1-6)[Man(a1-2)Man(a1-2)Man(a1-3)]Man(b1-4)GlcNAc(b1-4)GlcNAc
# Method in brief: as §1
# [19] = target: Man(a1-2)Man(a1-3)[Man(a1-6)]Man(a1-6)[Man(a1-2)Man(a1-3)]Man(b1-4)GlcNAc(b1-4)GlcNAc
# Method in brief: as §1
# [20] = target: Man(a1-2)Man(a1-6)[Man(a1-3)]Man(a1-6)[Man(a1-2)Man(a1-2)Man(a1-3)]Man
# Method in brief: as §1
# [21] = target: Man(a1-2)Man(a1-6)[Man(a1-3)]Man(a1-6)[Man(a1-2)Man(a1-2)Man(a1-3)]Man(b1-4)GlcNAc(b1-4)GlcNAc
# Method in brief: as §1
# [22] = target: Man(a1-3)[Man(a1-6)]Man
# Method in brief: as §1
# [23] = target: Man(a1-3)[Man(a1-6)]Man(a1-6)[Man(a1-2)Man(a1-3)]Man(b1-4)GlcNAc(b1-4)GlcNAc
# Method in brief: as §1
# [24] = target: Man(a1-3)[Man(a1-6)]Man(a1-6)[Man(a1-3)]Man
# Method in brief: as §1
# [25] = target: Man(a1-3)[Man(a1-6)]Man(a1-6)[Man(a1-3)]Man(b1-4)GlcNAc(b1-4)GlcNAc
# Method in brief: as §1
# [26] = target: Man(a1-3)[Man(a1-6)]Man(b1-4)GlcNAc(b1-4)GlcNAc
# Method in brief: as §1
# [27] = target: Man(a1-3)[Man(a1-6)]Man(b1-4)GlcNAc(b1-4)[Fuc(a1-6)]GlcNAc
# Method in brief: as §1
# [28] = target: Man(a1-6)Man
# Method in brief: as §1
# [29] = target: Man(b1-4)GlcNAc
# Method in brief: as §1
# [30] = target: MurNAc(b1-4)GlcNAc
# Method in brief: as §1
# [31] = target: Neu5Ac(a2-3)Gal
# Method in brief: as §1
# [32] = target: Neu5Ac(a2-3)Gal(b1-3)GalNAc
# Method in brief: as §1
# [33] = target: Neu5Ac(a2-3)Gal(b1-3)GalNAc(b1-3)Gal(a1-4)Gal(b1-4)Glc
# Method in brief: as §1
# [34] = target: Neu5Ac(a2-3)Gal(b1-3)GalNAc(b1-4)Gal(b1-4)Glc
# Method in brief: as §1
# [35] = target: Neu5Ac(a2-3)Gal(b1-3)GalNAc(b1-4)[Neu5Ac(a2-3)]Gal(b1-4)Glc
# Method in brief: as §1
# [36] = target: Neu5Ac(a2-3)Gal(b1-3)GalNAc(b1-4)[Neu5Ac(a2-8)Neu5Ac(a2-3)]Gal(b1-4)Glc
# Method in brief: as §1
# [37] = target: Neu5Ac(a2-3)Gal(b1-3)GalNAc6S
# Method in brief: as §1
# [38] = target: Neu5Ac(a2-3)Gal(b1-3)GlcNAc
# Method in brief: as §1
# [39] = target: Neu5Ac(a2-3)Gal(b1-3)GlcNAc(b1-2)Man
# Method in brief: as §1
# [40] = target: Neu5Ac(a2-3)Gal(b1-3)GlcNAc(b1-2)Man(a1-3)[GlcNAc(b1-4)][Neu5Ac(a2-3)Gal(b1-3)GlcNAc(b1-2)Man(a1-6)]Man(b1-4)GlcNAc(b1-4)GlcNAc
# Method in brief: as §1
# [41] = target: Neu5Ac(a2-3)Gal(b1-3)GlcNAc(b1-2)Man(a1-3)[Neu5Ac(a2-3)Gal(b1-3)GlcNAc(b1-2)Man(a1-6)]Man(b1-4)GlcNAc(b1-4)GlcNAc
# Method in brief: as §1
# [42] = target: Neu5Ac(a2-3)Gal(b1-3)GlcNAc(b1-2)[Neu5Ac(a2-3)Gal(b1-3)GlcNAc(b1-4)]Man(a1-6)[Neu5Ac(a2-3)Gal(b1-3)GlcNAc(b1-2)Man(a1-3)]Man(b1-4)GlcNAc(b1-4)GlcNAc
# Method in brief: as §1
# [43] = target: Neu5Ac(a2-3)Gal(b1-3)GlcNAc(b1-3)Gal(b1-3)GlcNAc
# Method in brief: as §1
# [44] = target: Neu5Ac(a2-3)Gal(b1-3)GlcNAc(b1-3)Gal(b1-4)GlcNAc
# Method in brief: as §1
# [45] = target: Neu5Ac(a2-3)Gal(b1-3)GlcNAc(b1-3)GalNAc
# Method in brief: as §1
binder,measurement,setting,value
B1,glycan array binding signal (z-score),[1],-0.246
same,glycan array binding signal (z-score),[2],-0.258
same,glycan array binding signal (z-score),[3],-0.257
same,glycan array binding signal (z-score),[4],-0.168
same,glycan array binding signal (z-score),[5],-0.256
same,glycan array binding signal (z-score),[6],0.055
same,glycan array binding signal (z-score),[7],-0.22
same,glycan array binding signal (z-score),[8],-0.256
same,glycan array binding signal (z-score),[9],-0.267
same,glycan array binding signal (z-score),[10],-0.245
same,glycan array binding signal (z-score),[11],-0.238
same,glycan array binding signal (z-score),[12],-0.25
same,glycan array binding signal (z-score),[13],-0.249
same,glycan array binding signal (z-score),[14],-0.244
same,glycan array binding signal (z-score),[15],-0.278
same,glycan array binding signal (z-score),[16],-0.3
same,glycan array binding signal (z-score),[17],-0.258
same,glycan array binding signal (z-score),[18],-0.207
same,glycan array binding signal (z-score),[19],-0.274
same,glycan array binding signal (z-score),[20],-0.295
same,glycan array binding signal (z-score),[21],-0.217
same,glycan array binding signal (z-score),[22],-0.237
same,glycan array binding signal (z-score),[23],-0.071
same,glycan array binding signal (z-score),[24],-0.246
same,glycan array binding signal (z-score),[25],-0.249
same,glycan array binding signal (z-score),[26],-0.243
same,glycan array binding signal (z-score),[27],-0.24
same,glycan array binding signal (z-score),[28],-0.247
same,glycan array binding signal (z-score),[29],-0.226
same,glycan array binding signal (z-score),[30],-0.259
same,glycan array binding signal (z-score),[31],-0.278
same,glycan array binding signal (z-score),[32],-0.251
same,glycan array binding signal (z-score),[33],-0.241
same,glycan array binding signal (z-score),[34],-0.282
same,glycan array binding signal (z-score),[35],-0.262
same,glycan array binding signal (z-score),[36],-0.266
same,glycan array binding signal (z-score),[37],-0.263
same,glycan array binding signal (z-score),[38],-0.244
same,glycan array binding signal (z-score),[39],-0.263
same,glycan array binding signal (z-score),[40],-0.232
same,glycan array binding signal (z-score),[41],0.006
same,glycan array binding signal (z-score),[42],-0.253
same,glycan array binding signal (z-score),[43],-0.277
same,glycan array binding signal (z-score),[44],-0.264
same,glycan array binding signal (z-score),[45],-0.259
